± gives the standard deviation of the averaged measurements. The list shows a part of the results.
System: PfAP2-EXP AP2 domain (GST-tagged)
Assay: gcPBM binding intensity (ln(normalized median fluorescence intensity)); higher = stronger DNA binding
How it was run: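 The highest Masliner-normalised natural-log median intensity across replicate spots of either probe orientation is reported as binding intensity. GST-tagged P. falciparum DNA-binding domains expressed in E. coli were applied for 1 h to an Agilent 4 × 180k array of primer-extended double-stranded 36-bp intergenic genomic probes plus negative controls, and bound protein was detected with Alexa488 anti-GST antibody and scanned at 488 nm.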

In order of rising “gcPBM binding intensity (ln)” value:
1. AAATAAATTAAAATAAATTAAATTAAATTAGCATTA [GTGCAC_negctrl_site531]  7.67 ± 0.36
2. TTTTTTTTTTTTTTTTGTACTCATACATACTATCAT [XGTACX_site3650]  8.32 ± 0.71
3. TTTTTCTTTTTCTTTTTTTCTTTTTTTTTTTTTTTC [GTGCAC_negctrl_site727]  8.32 ± 0.65
4. AAATATAAAAATAGCACACATATATACCTATATATA [CACACA_site4204]  8.37 ± 0.37
5. TAATAATATTATTAATGTACAAATATATATACATAT [XGTACX_site7348]  8.37 ± 0.38
6. TATTTTATTATACCAAGTACAAAATTTAAATATGAA [XGTACX_site5478]  8.38 ± 0.36
7. AACAAAAAAAAAAAATGTACATATATATAATATATT [XGTACX_site3829]  8.4 ± 0.29
8. CAAACAATTAAACAAACACACATATACAAGTATTTA [CACACA_site5177]  8.41 ± 0.33
9. TTTTAAATAATTCGTAATTATAATTATGGAAAAAAG [CACACA_negctrl_site152]  8.43 ± 0.48
10. GGATGGAGTAGTTAAGCATAATAAATAAAATTATGT [CACACA_negctrl_site578]  8.46 ± 0.45
11. TTTAAGTTTTTACTTTGTACGTATTATAATAAAATC [XGTACX_site5683]  8.48 ± 0.28
12. GCTTGAATAATCAATAGTACACACATATAAATATAT [XGTACX_site5964]  8.51 ± 0.23
13. TTTATTTTTTACCAAGTGCAATATATTATAATAATA  8.52 ± 0.23
14. TAATATTTATAATAGTGTACACAATTATAAACTGAA [XGTACX_site8426]  8.52 ± 0.24
15. TAATAAAAGAAAAAAAGTACAGACATATTGAATTTT [XGTACX_site5044]  8.53 ± 0.47
16. TTTCACATATATATGGTGCATATTTTATGTGTAAAT [GTGCAC_site9937]  8.545 ± 0.035
17. GCATTGGGAATATATAGTACATATATATATATATAA [XGTACX_site2967]  8.55 ± 0.21
18. AATGCTATCATTAATGCACACATTTAAAATTAATAT [CACACA_site3548]  8.57 ± 0.2
19. GTTTTAAACAAAAATTGTACAATATAATCTTCCTAT [XGTACX_site2851]  8.57 ± 0.36
20. TTTTTTTTTTTTTTTGTGCACAATTATTTCAATTTT [GTGCAC_site9884]  8.61 ± 0.49
21. TTTATTTTCATATGAACACACATATTTATATTATAA [CACACA_site7165]  8.62 ± 0.44
22. CAGGCACTAATAAACACACACATATAAATATAAATA [CACACA_site6320]  8.62 ± 0.66
23. AGGTGTGAGACCACGTTCACAAAATAAAATACATAA [CACACA_negctrl_site326]  8.63 ± 0.4
24. TGTTCTTTTTATACTACACACTGATAAAAAAACAAA [CACACA_site3001]  8.63 ± 0.31
25. AACAACTATTAATTTACACACATGTATATATTTTAC [CACACA_site3116]  8.64 ± 0.42
26. GGATTGATAAGTGGTACACACATATATATTATATAT [CACACA_site2866]  8.71 ± 0.3
27. TATCCATGCATTTACACACACACAAAAAAAAATTCT [CACACA_site4100]  8.73 ± 0.47
28. TGTATGTTATGTATATGTACATATCTTTGTATTTAT [XGTACX_site6920]  8.73 ± 0.23
29. TCATTTCACAAACACACACACACAATATATTTCCTT [CACACA_site3905]  8.73 ± 0.49
30. ACCTCACAAATGAATACACACAAACATATATATTTA [CACACA_site4976]  8.73 ± 0.44
31. CCACAAGCAGCGGAAACATGCATATGTTGAAATAAT [TGCATGCA_site610]  8.74 ± 0.33
32. AATATCATCCTTTTTTTTTATAAAATTTAAAATATA [CACACA_negctrl_site844]  8.75 ± 0.86
33. TATATAATACAAAAGGGTACATTAACATATTATATA [XGTACX_site3196]  8.77 ± 0.57
34. TACAATCTAAGGAGCACACAAAAATGGATAAATATA [CACACA_site933]  8.79 ± 0.51
35. ATACATACATATATATGTACTTATATTTTACACATT [XGTACX_site1688]  8.79 ± 0.28
36. ATTTTATGTTGAAAGTGTACGTATTAATATGTAGAA [XGTACX_site245]  8.79 ± 0.38
37. AATTTCTACTATTGTATGCACTTTCATACATACATA [GTGCAC_site9924]  8.82 ± 0.27
38. CAGACGCACGTATTTGCACACATTGCCACGTAATTA [CACACA_site3349]  8.82 ± 0.28
39. CAAAACCTTTTATGTACACACATATACATCCCACTT [CACACA_site5716]  8.87 ± 0.31
40. AATAGCTAGCTGTGCACACAAACATATTTTCCAAAT [CACACA_site880]  8.87 ± 0.37
41. ATAATAAAAAATACAAGTACACATATTATATATATA [XGTACX_site5355]  8.93 ± 0.092
42. AAAAAAATTGGGAAAAGTACTTGCAGCTAGCTAAAA [XGTACX_site5178]  8.93 ± 0.52
43. GTTAAGAATATGTGTACACATATACATAAATACATA [CACACA_site4254]  8.93 ± 0.4
44. GTGTGCAAAAATTGTTGTACATTATATATAAAAAAA [XGTACX_site3246]  8.945 ± 0.035
45. ACATCAAGCAGACACACACACACACCCACCCACCCA [CACACA_site8012]  9.15 ± 0.32
46. TATAAGAGAATATATACACACAAAAATAAATACAGT [CACACA_site5000]  9.18 ± 0.2
47. TTAAAAAAAATTTCAAGTACAAAGTAATATATATAT [XGTACX_site5718]  9.34 ± 0.085
48. TATTTATAAGTTTACGCATGCATATAATTATTAATA [TGCATGCA_site311]  9.38 ± 0.4
49. ATATATATATAATTTTGTACATAATAGCAATTCTAA [XGTACX_site653]  9.64 ± 0.071
50. AACCATTCAACTGATGCATGCATTTAACATATAAAT [TGCATGCA_site961]  9.69 ± 0.23
51. ACCTTATTTATTATTGCATGTGACCATCAGATGGTA [TGCATGCA_site288]  9.73 ± 0.52
52. AACACAAGAACAGAACGTACACACACATATATATAT [XGTACX_site7347]  9.76 ± 0.16
53. TATATATATATATATTGTACCCTTTTCAAACTTCTC [XGTACX_site2812]  9.92 ± 0.3
54. TTTAAAACCTTACATACACACAAATATATATATATA [CACACA_site677]  9.98 ± 0.3
55. AAACAAATATAATATTGTACATATATATATATATAT [XGTACX_site3105]  10.1 ± 0.41
56. TATATTTACTTATGAAGTACATATATATATATATAT [XGTACX_site5069]  10.3 ± 0.21
57. TTTGTAACTTCTTTCACACATATATATATATATATA [CACACA_site5603]  10.3 ± 0.47
